About 50,000 (12%) of roughly 420,000 compounds were called active. Inconclusive means that the source gave no clear call. Such entries were picked first, then a sample of the others. Calls follow the shape of the dose curve; as a rule, active = well fitted inhibition curve with a large enough effect; inconclusive = small, poorly fitted or top-dose-only effect; inactive = flat fitted curve, though single readings scatter. No potency is given beside an inconclusive call; the fits are too rough.
Experiment: qHTS for Inhibitors of human tyrosyl-DNA phosphodiesterase 1 (TDP1): qHTS in cells in presence of CPT; also: nearly all actives have a fitted effect of over 55% in size
Conditions: chicken DT40 Tdp1-/-;hTDP1 cells + 20 nM CPT, ATP luminescence, 48 h; activity change, negative = growth inhibition: at 46.2 µM (top of the series) unless noted
In short: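 Chicken DT40 Tdp1-/- cells complemented with human TDP1, 400 cells/well, exposed to compounds plus 20 nM camptothecin for at least 48 h at 37 C; viability read as ATP content by CellTiter-Glo luminescence.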
% is scaled to controls: 0 for no effect and ±100 for the full control effect; potency is read from the fitted curve at half-maximal effect; tags tell the direction and shape of the fitted curve.

Row | SMILES | Potency | activity change, negative = growth inhibition
1 | CN1c2ccc(C=O)c3c(C=O)ccc(c23)N(C)C1(C)C | active: 20.6 µM | 
2 | Cc1ccc(-n2nc3c(=O)n(CCCC(=O)NCC(C)c4ccccc4)nc(C)c3c2C)cc1 (stereo not given) | inconclusive [inhibitor, partial curve] | 
3 | COc1ccc(C2(Nc3cccc(F)c3)C(=O)c3ccccc3C2=O)cc1 |  | inactive: 5.75%
4 | Cc1c(OC(C)C(=O)NCC2CCC(C(=O)O)CC2)ccc2c(-c3ccccc3)cc(=O)oc12 (stereo not given) |  | inactive: 3.51%
5 | CCCN(CCC)CCCNC(=O)C1CCCN(Cc2nc(-c3ccc(Cl)cc3)oc2C)C1 (stereo not given) | active: 11.6 µM | 
6 | COc1cc2c(cc1OC)C1=NC(=O)CN1C(SCc1ccccc1C)=N2 | active: 10.3 µM | 
7 | O=S(=O)(NCc1ccccc1)NCc1ccc(Cl)cc1Cl | inconclusive [inhibitor, single point] | 
8 | CCCc1cc(=O)[nH]c(SCC(N)=O)n1 |  | inactive: -4.82%
9 | COc1ccc(NC(=O)CSc2cc(C)ccc2C)cn1 | inconclusive [inhibitor, partial curve, poor fit] | 
10 | COc1ccc(C2(C)NC(=O)N(CC(=O)Nc3ccc(-c4nc5ccc(C)cc5s4)cc3)C2=O)cc1 (stereo not given) |  | inconclusive: -30.9% [inhibitor]
11 | O=C(COC(=O)c1ccccc1)NCC1COc2ccccc2O1 (stereo not given) |  | inactive: -20.2%
12 | Cc1ccc(S(=O)(=O)N2[C@@H](c3cccc(Cl)c3)C(C(=O)OC(C)(C)C)=CC[C@H]2c2cccc(Cl)c2)cc1 | active: 9.2 µM | 
13 | Nc1nn2cc(-c3ccccc3)nc2c2ccccc12 | inconclusive [inhibitor, single point] | 
14 | O=C(NC1CCCC1)C1C(c2ccc(C(F)(F)F)cc2)=Nc2ccccc2N1C(=O)c1cccc2ccccc12 (stereo not given) | inconclusive [inhibitor, single point] | 
15 | Cc1ccc(Cn2nnc3c(=O)[nH]c(C4CCCN(C(=O)Nc5ccc(F)cc5F)C4)nc32)cc1 (stereo not given) | inconclusive [inhibitor, single point] | 
16 | O=C(NCc1ccccc1)C(c1ccccc1)N(Cc1ccc2c(c1)OCO2)C(=O)Cc1cccs1 (stereo not given) | inconclusive [inhibitor, single point] | 
17 | C[C@@H]1CN([C@@H](C)CO)S(=O)(=O)c2ccc(Br)cc2O[C@H]1CN(C)C(=O)C1CCC1 | inconclusive [inhibitor, partial curve] | 
18 | CC(C)(CSc1ncccn1)NS(=O)(=O)c1ccccc1 |  | inactive: -2.99%
19 | Fc1cccc(Nc2ncnc3c2cnn3-c2ccccc2)c1 | inconclusive [inhibitor, single point] | 
20 | COc1ccc(N/N=C(\C#N)C(=N)N2CCCCC2)cc1 |  | inactive: -12.8%
21 | CCC(C)c1ccccc1OCCCCN1CCCC1 (stereo not given) | inconclusive [inhibitor, single point] | 
22 | COc1ccc(N(C(=O)c2snc(C(N)=O)c2N)C(C(=O)NC2CCCCC2)c2ccc(C)o2)cc1 (stereo not given) | inconclusive [inhibitor, single point] | 
23 | COc1ccc(C)cc1NC(=O)C(OC(=O)Cn1cnc2c1c(=O)n(C)c(=O)n2C)c1ccccc1 (stereo not given) |  | inactive: 0.0637%

Row | SMILES | Potency | activity change, negative = growth inhibition
24 | Cc1cc2c(OCC(O)CNCc3ccco3)cccc2[nH]1 (stereo not given) |  | inactive: -16.5%
25 | O=C(c1ccco1)N1CCC2(CC1)CCN(c1ccncc1)CC2 | inconclusive [inhibitor, partial curve] | 
26 | O=C(NCc1ccncc1)c1ccccc1Nc1ccc(SC(F)F)cc1 | inconclusive [inhibitor, partial curve] | 
27 | Cc1ccccc1OCC(=O)Nc1ccc(N2CCN(C)CC2)c(Cl)c1 | inconclusive [inhibitor, single point] | 
28 | Cc1ccc2[nH]cc(CCNC(=O)c3ccc([N+](=O)[O-])cc3)c2c1 | inconclusive [inhibitor, full curve] | 
29 | O=C(Nc1ccc(Cl)cc1)NC1CCCc2ccccc21 (stereo not given) | inconclusive [inhibitor, single point] | 
30 | Cc1ccccc1-c1cc(NCc2cccnc2)ncn1 |  | inactive: -5.71%
31 | O=S(=O)(c1ccc(Cl)cc1)c1nc(-c2cccs2)oc1SCc1ccc(F)cc1 | active: 20.6 µM | 
32 | CN(C1CCCCC1)S(=O)(=O)c1ccc(NC(=O)Cn2nc(-c3ccc(F)cc3)ccc2=O)cc1 | inconclusive [inhibitor, single point] | 
33 | COCCSc1ccccc1C(=O)Nc1ccc([N+](=O)[O-])cc1OC | inconclusive [inhibitor, single point] | 
34 | COc1ccc(NS(=O)(=O)c2cc(C)ccc2NC(=O)c2cc(C)oc2C)cc1 | active: 0.92 µM | 
35 | COc1cc(-c2nnc(COC(=O)c3ccc(C)o3)o2)cc(OC)c1OC | inconclusive [inhibitor, single point] | 
36 | Cc1cc(Nc2ccc(Br)cc2F)n2ncnc2n1 | inconclusive [inhibitor, single point] | 
37 | CCNC(=O)c1c(NC(=O)c2nc(SCC)ncc2Cl)sc2c1CCCC2 | inconclusive [inhibitor, partial curve, poor fit] | 
38 | C[C@H]1CN=C(Nc2ccccc2)N1CC1CCCCCC1 | active: 18.4 µM | 
39 | COc1ccc([C@H]2CC(=O)C=C(c3ccc(C(F)(F)F)c(C(F)(F)F)c3)C2)cc1OC | inconclusive [inhibitor, single point] | 
40 | Cc1ccc(N(Cc2cc3cc(C)ccc3[nH]c2=O)S(=O)(=O)c2ccccc2)cc1 | active: 23.1 µM | 
41 | COC(=O)c1[nH]c2ccccc2c1NC(=O)/C=C/c1ccc2c(c1)OCO2 |  | inactive: -28.5%
42 | CCn1c(SCC(=O)NC2CCCCC2)nc2c(c1=O)SC(C)C2 (stereo not given) | inconclusive [inhibitor, partial curve] | 
43 | O=C(COC(=O)CCc1c[nH]c2ccccc12)Nc1ccccc1C(F)(F)F | inconclusive [inhibitor, partial curve] | 
44 | CCn1c(C)nc2cc(S(=O)(=O)N3CCCC3)ccc21 |  | inactive: -22.6%
45 | CC1=C(C(=O)Nc2ccc(Cl)cc2)C(c2ccccc2F)n2nc(SCc3cccc(Cl)c3)nc2N1 (stereo not given) | inconclusive [inhibitor, partial curve] | 
